# From the antibiotic and cytotoxicity screens of Wong et al. (2023)
# The other results are listed elsewhere or left out.
# Tests used:
# [1] = test system: HSkMC (human skeletal muscle cells); assay: cytotoxicity call (relative viability < 0.9); conditions: 10 µM
# [2] = test system: HepG2; assay: cytotoxicity call (relative viability < 0.9); conditions: 10 µM
# [3] = test system: S. aureus RN4220; assay: growth inhibition call (relative growth <= 0.2); conditions: 50 µM
Structure (SMILES),cytotoxicity call [1],cytotoxicity call [2],growth inhibition call [3]
CCCN(C)C[C@@H]1OCCCC[C@@H](C)Oc2ccc(NC(=O)Nc3ccc(C(F)(F)F)cc3)cc2C(=O)N([C@H](C)CO)C[C@H]1C,inactive,inactive,active
C[C@H](CO)N1C[C@H](C)[C@H](CN(C)S(=O)(=O)c2ccc(Cl)cc2)OCCCC[C@H](C)Oc2ccc(NC(=O)Cc3ccccc3)cc2C1=O,inactive,inactive,inactive
C[C@H](CO)N1C[C@H](C)[C@H](CN(C)Cc2ccc(C(=O)O)cc2)OCCCC[C@H](C)Oc2ccc(NC(=O)Nc3cccc4ccccc34)cc2C1=O,inactive,inactive,inactive
COc1cccc(S(=O)(=O)N(C)C[C@@H]2Oc3cc(C4=CCCC4)ccc3S(=O)(=O)N([C@H](C)CO)C[C@H]2C)c1,inactive,inactive,inactive
CCCCC[C@@H](O)[C@@H]1C(=O)O[C@H](C)[C@H](O)/C=C/C=C/C=C/C=C/C=C(\C)[C@H](O)C[C@H](O)C[C@H](O)C[C@H](O)C[C@H](O)C[C@H](O)C[C@@H]1O,inactive,inactive,inactive
Cc1noc(C)c1NC(=O)Nc1cccc2c1O[C@H](CN(C)Cc1ccc(C(=O)Nc3ccccc3N)cc1)[C@H](C)CN([C@@H](C)CO)C2=O,inactive,inactive,inactive
C[C@@H]1CN([C@H](C)CO)C(=O)c2cc(NS(=O)(=O)c3ccccc3)ccc2O[C@@H]1CN(C)S(=O)(=O)c1ccccc1,inactive,inactive,inactive
Cc1nccn1-c1ccc(CN)cc1,inactive,inactive,inactive
COCC(=O)N1C[C@@H](C)[C@H](OC)CN(C)C(=O)c2cc(NC(=O)c3cc(C)on3)ccc2OC[C@H]1C,inactive,inactive,inactive
COc1ccc(NC(=O)Nc2ccc3c(c2)C(=O)N([C@@H](C)CO)C[C@H](C)[C@@H](CN(C)C(=O)Nc2c(C)noc2C)OCCCC[C@H](C)O3)cc1,inactive,inactive,inactive
Cc1nc2n(c(=O)c1CCN1CCC(c3noc4cc(F)ccc34)CC1)CCCC2,inactive,inactive,inactive
Cc1noc(C)c1NC(=O)N(C)C[C@H]1OCCCC[C@@H](C)Oc2ccc(NC(=O)Cc3ccccc3)cc2C(=O)N([C@@H](C)CO)C[C@H]1C,inactive,inactive,inactive
C[C@@H]1CN([C@H](C)CO)C(=O)c2cccc(NC(=O)c3ccc(-c4nccs4)cc3)c2O[C@@H]1CN(C)C(=O)Nc1cccc2ccccc12,inactive,inactive,inactive
C[C@@H]1CN([C@H](C)CO)S(=O)(=O)c2ccc(C#Cc3ccccc3F)cc2O[C@@H]1CN(C)CC1CCOCC1,inactive,inactive,inactive
C[C@H]1CCCCO[C@H](CN(C)Cc2ccc(C(=O)O)cc2)[C@@H](C)CN([C@@H](C)CO)C(=O)c2cc(NC(=O)CCC(F)(F)F)ccc2O1,inactive,inactive,inactive
COc1ccc(NC(=O)N(C)C[C@@H]2Oc3ccc(NC(=O)CCCCCC(=O)Nc4ccccc4N)cc3CC(=O)N([C@H](C)CO)C[C@@H]2C)cc1,inactive,inactive,inactive
Cc1ccc(S(=O)(=O)Nc2ccc3c(c2)C(=O)N([C@H](C)CO)C[C@@H](C)[C@@H](CN(C)Cc2ccncc2)OCCCC[C@H](C)O3)cc1,inactive,inactive,inactive
C[C@H]1CN([C@@H](C)CO)C(=O)Cc2cc(NC(=O)Nc3cccc4ccccc34)ccc2O[C@H]1CN(C)Cc1ccc(C(F)(F)F)cc1,active,active,inactive

Structure (SMILES),cytotoxicity call [1],cytotoxicity call [2],growth inhibition call [3]
C[C@H](CO)N1C[C@H](C)[C@@H](CN(C)S(=O)(=O)c2cn(C)cn2)OCCCC[C@H](C)Oc2ccc(NC(=O)c3ccncc3)cc2C1=O,inactive,inactive,inactive
O=C(C[C@H]1C=C[C@H](NC(=O)c2cccnc2)[C@H](CO)O1)NCCN1CCCCC1,inactive,inactive,inactive
c1ccc(C2C3=C(CCCC3)SC3=C2CCCC3)cc1,inactive,inactive,inactive
NCCc1c(C(=O)O)[nH]c2ccc(Br)cc12,inactive,inactive,inactive
C[C@H]1CN([C@@H](C)CO)C(=O)c2cccc(NS(C)(=O)=O)c2O[C@H]1CN(C)Cc1ccc2c(c1)OCO2,inactive,inactive,inactive
Cc1noc(C)c1S(=O)(=O)N(C)C[C@@H]1Oc2ccc(NS(=O)(=O)c3cccs3)cc2C(=O)N([C@H](C)CO)C[C@@H]1C,inactive,inactive,inactive
COc1ccc(CCNC(=O)[C@@]2(Sc3ccc(C)cc3)CC(=O)N(Cc3ccccc3Cl)[C@@H]2c2ccc(CO)cc2I)cc1,inactive,inactive,inactive
C[C@H]1CN([C@@H](C)CO)S(=O)(=O)c2ccc(Br)cc2O[C@H]1CN(C)Cc1ccccc1F,inactive,inactive,inactive
C[C@H]1CCCCO[C@@H](CN(C)C(=O)Nc2cccc3ccccc23)[C@@H](C)CN([C@@H](C)CO)C(=O)c2cc(NS(=O)(=O)c3ccc(F)cc3)ccc2O1,inactive,inactive,inactive
Cn1c(=O)c2c(nc(Cl)n2CCN2C(=O)CNC2=O)n(C)c1=O,inactive,inactive,inactive
Cc1cccc2[nH]c(CN)nc12,inactive,inactive,inactive
C[C@@H]1CN([C@@H](C)CO)C(=O)c2cc(NC(=O)Cc3cn(C)c4ccccc34)ccc2O[C@H]1CN(C)S(=O)(=O)c1cn(C)cn1,inactive,inactive,inactive
O=C(CCCCCCC(=O)N/N=C/[C@H](O)[C@@H](O)[C@@H](O)[C@H](O)CO)NO,inactive,inactive,inactive
C[C@H](CO)N1C[C@H](C)[C@H](CN(C)Cc2ccc(C(F)(F)F)cc2)OCCCC[C@H](C)Oc2ccc(NC(=O)Nc3ccccc3)cc2C1=O,inactive,active,inactive
O=C(C[C@H]1C[C@@H]2c3cc(NC(=O)c4ccc5c(c4)OCO5)ccc3O[C@@H]2[C@H](CO)O1)NCCc1ccccc1,inactive,inactive,inactive
C=C1CCOC(=O)[C@@H](NC(C)=O)CCCN(O)C(=O)/C=C(\C)CCOC(=O)[C@H](NC(C)=O)CCCN(O)C(=O)/C=C(\C)CCOC(=O)[C@@H](NC(C)=O)CCCN(O)C(=O)C1,inactive,inactive,inactive
C[C@@H]1CN([C@@H](C)CO)C(=O)c2cc(NS(=O)(=O)c3cn(C)cn3)ccc2O[C@H]1CN(C)S(C)(=O)=O,inactive,active,inactive
CO[C@@H]1CN(C)C(=O)c2ccc(NC(=O)C3CCOCC3)cc2OC[C@@H](C)N(Cc2cccnc2)C[C@H]1C,inactive,inactive,inactive
